The other results are listed elsewhere or left out.
These sequences were tested against T1, OsWOX13 (Oryza sativa, UniProt Q5QMM3 1-267) (assay: protein-binding microarray (RPBM); PBS, 2% BSA, 51.3 ng/ul salmon testes DNA, 50 uM zinc acetate, 200 nM TF, 25 C, 1 h; high values mean tight binding). Settings: protein: recombinant; tags: N-terminal polyhistidine and DsRed monomer fusion (pET32a); label: CyDye5-dUTP incorporated in the synthesized complementary strand; 3' TTTTT single-stranded linker to array surface; dsDNA, one strand shown.
T1 sequence: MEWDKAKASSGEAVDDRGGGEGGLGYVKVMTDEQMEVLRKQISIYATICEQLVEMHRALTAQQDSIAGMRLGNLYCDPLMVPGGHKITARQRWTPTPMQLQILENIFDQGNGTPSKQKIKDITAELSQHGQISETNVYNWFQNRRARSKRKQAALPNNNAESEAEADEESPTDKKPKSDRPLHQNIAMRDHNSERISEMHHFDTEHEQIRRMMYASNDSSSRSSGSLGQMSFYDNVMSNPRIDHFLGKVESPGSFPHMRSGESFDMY
Procedure, shortened: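 The binding signal is fluorescence intensity per feature, in arbitrary units, read on an Axon 4000B scanner. Polyhistidine- and DsRed-tagged transcription factors (N-terminal fusions) from E. coli BL21-CodonPlus were purified on Ni–NTA and applied at 200 nM for 1 h at 25 °C to a double-stranded, BSA-blocked custom Agilent array in buffer with 50 µM zinc acetate.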

Sequence | binding signal
GGTCTAAGTAAATTTAATTGTACTGTTCAAATTAATAATGCGGAGTCACCTAGTGCAG | 8460 fluorescence intensity (a.u.)
GCAATTGAGAATAATTTGATAGGGACCAAAGAAGACTACTCGGAGTCACCTAGTGCAG | 13100 fluorescence intensity (a.u.)
GAAGTAGTTAAGGGTGATTTATGTCATCACAAGTAAACCTCGGAGTCACCTAGTGCAG | 3800 fluorescence intensity (a.u.)
ACACACCTAATTACATATTTGTTTTAATGTCCTGTGACAACGGAGTCACCTAGTGCAG | 9500 fluorescence intensity (a.u.)
TTGAAAATTAATTATAAATATTAAACGTGGACTATTAATACGGAGTCACCTAGTGCAG | 13500 fluorescence intensity (a.u.)
TCGTGATTAGAATCTTAATCTCTAGCCTGTCTTTGCTTGCCGGAGTCACCTAGTGCAG | 56200 fluorescence intensity (a.u.)
AATAATTTAATAAAAGATATTATATGGAAAATGTTGCATGCGGAGTCACCTAGTGCAG | 30400 fluorescence intensity (a.u.)
TATTAATCCATGATTTGCTACAGTAATGCTATAGTATCAGCGGAGTCACCTAGTGCAG | 8160 fluorescence intensity (a.u.)
GTTGATGGGAACTAGTATTCTAGAGTCGTTGCTTATATATCGGAGTCACCTAGTGCAG | 4410 fluorescence intensity (a.u.)
TCCTTCGATTGATCAAATGACTGTTTGATTATGGAGTAGACGGAGTCACCTAGTGCAG | 22900 fluorescence intensity (a.u.)
CGGTTTTAATTAATTCGTTGGATTCAATCTTCGTTTAACTCGGAGTCACCTAGTGCAG | 24500 fluorescence intensity (a.u.)
TCTAATTAATTTGTCATTAGCAAATGTTTATTGTAGCATCCGGAGTCACCTAGTGCAG | 58400 fluorescence intensity (a.u.)
TTTAGATAATTAATATTTAAATAATTATACTCTCGTTTTGCGGAGTCACCTAGTGCAG | 29600 fluorescence intensity (a.u.)
CACATCCAAATTTGTAATAATATAACTTTAGTAGGATATCCGGAGTCACCTAGTGCAG | 7770 fluorescence intensity (a.u.)
TAAGTGATTTTAGTTAGATGGGACACATCATATTATTATGCGGAGTCACCTAGTGCAG | 9700 fluorescence intensity (a.u.)
AATTTAATTCATCATTCTAATAATTTATTTACTGGATTCCCGGAGTCACCTAGTGCAG | 7440 fluorescence intensity (a.u.)
CCTACTTCTAGTCTGATTGATTTTAGCTATAAAATTGCTACGGAGTCACCTAGTGCAG | 23300 fluorescence intensity (a.u.)
GATCGACATGAAATTAATTAAAGCTAGCTATAGGGAGCAACGGAGTCACCTAGTGCAG | 4550 fluorescence intensity (a.u.)
TTTATTGATTAAATAGAGTCATTACAATCTCGCAGAACAACGGAGTCACCTAGTGCAG | 22200 fluorescence intensity (a.u.)
GGAACGAAACAAGGCCTAATTGAGGATGCAAGAGAATCCTCGGAGTCACCTAGTGCAG | 6590 fluorescence intensity (a.u.)
AACCACTAATTATCGTATCATACGTCTTTATCGTATGCATCGGAGTCACCTAGTGCAG | 27500 fluorescence intensity (a.u.)
GGAAGATTACCCTGTTTACCACTCACTGTACGATGATTATCGGAGTCACCTAGTGCAG | 4430 fluorescence intensity (a.u.)
AGCGCTAGATTGGCCATCGACCACATCACCAACAACTCTCCGGAGTCACCTAGTGCAG | 13600 fluorescence intensity (a.u.)
TTTTGATTGCACCTTGCTTCTCGTATACACCCTCACCTATCGGAGTCACCTAGTGCAG | 22200 fluorescence intensity (a.u.)
ACTGAAATTAATATTAGGTGCAAGTAATTCCATTCTCGACCGGAGTCACCTAGTGCAG | 6650 fluorescence intensity (a.u.)
ATACCGTTGATTTTCCGTCTTTTCAAGCATGTGTTACGGGCGGAGTCACCTAGTGCAG | 6990 fluorescence intensity (a.u.)
AAATTTATGTAATTATAATTTATTTTATTGTGACTTGATTCGGAGTCACCTAGTGCAG | 15700 fluorescence intensity (a.u.)

Sequence | binding signal
TCTCCTTCCAATCAAAATCTCCACTGCCAAAGCTATCTGTCGGAGTCACCTAGTGCAG | 8190 fluorescence intensity (a.u.)
CAAATTGATCCAGGAAGCCACGGGACGGCACGGATCTTTGCGGAGTCACCTAGTGCAG | 5080 fluorescence intensity (a.u.)
GATTAATTCAATCCTATAAATTATATCCCAATTTATAATTCGGAGTCACCTAGTGCAG | 11600 fluorescence intensity (a.u.)
AGGAGATTGTTAAGTGGCCATCCCTTTCTTTCTAATTCCTCGGAGTCACCTAGTGCAG | 3460 fluorescence intensity (a.u.)
GAGCTAATTAGGCCATATATAAATTATTCATCGAAGGGTTCGGAGTCACCTAGTGCAG | 42900 fluorescence intensity (a.u.)
TAATCTAAATCAACTCATTGATTTTGCAAATGTGAGTTGACGGAGTCACCTAGTGCAG | 13300 fluorescence intensity (a.u.)
ATGCATGGAAATTAATTAATCTAGCTCGTTGTCGACGTCACGGAGTCACCTAGTGCAG | 7480 fluorescence intensity (a.u.)
TAAGATATCAAAATTTATGATAATTTTATCATCTCTAAGACGGAGTCACCTAGTGCAG | 3550 fluorescence intensity (a.u.)
CCTGTGGGCATAAAAGCACCCGGCACCAGCGTCCGCTCGACGGAGTCACCTAGTGCAG | 6240 fluorescence intensity (a.u.)
CCAGCCCGTACTAATTAGGAGTACCATGAGAGGTACCGTACGGAGTCACCTAGTGCAG | 3370 fluorescence intensity (a.u.)
TCCTTGATTTCTACTCTGGTTCAGATTATATAGTTTCTCTCGGAGTCACCTAGTGCAG | 16400 fluorescence intensity (a.u.)
AGTTGATTTGTTCTTATAAAACTGAATAATTATAACATAGCGGAGTCACCTAGTGCAG | 17700 fluorescence intensity (a.u.)
TTCAGCCTGTCATCGTCAATTCGTCATCAGTTCATCGCTCCGGAGTCACCTAGTGCAG | 6130 fluorescence intensity (a.u.)
TTTAGTATATAATAGATAGATAGATAGAAGATTTGTACTACGGAGTCACCTAGTGCAG | 4500 fluorescence intensity (a.u.)
GCATTAATGCATTATTAATCAGTGATTCATTTAACCCCATCGGAGTCACCTAGTGCAG | 12500 fluorescence intensity (a.u.)
CATGATTTATAAATTATAAGCCTTGTGACTTGTGAGACGCCGGAGTCACCTAGTGCAG | 51900 fluorescence intensity (a.u.)
TACACTTCGGTCATCATTTATAATTATAAATGTGTATTAACGGAGTCACCTAGTGCAG | 9110 fluorescence intensity (a.u.)
TACGGATAGTGATTGGGACGGAGGTGGTAACTCGTTTTACCGGAGTCACCTAGTGCAG | 14300 fluorescence intensity (a.u.)
ATCTAATCAACTTCTTGTAGTTGTTAGGCATTATGCGCGGCGGAGTCACCTAGTGCAG | 4120 fluorescence intensity (a.u.)
ATGGTTAACTGCTCTGATCTAAACTACTTGTTACGTGATGCGGAGTCACCTAGTGCAG | 7350 fluorescence intensity (a.u.)
TAGCAGATTAATCAAACTGAAACCCTCACTCCACAGCATTCGGAGTCACCTAGTGCAG | 9560 fluorescence intensity (a.u.)
GAAATTAGTCCAATAATTCAGTTTAATATTTACCCGGTTACGGAGTCACCTAGTGCAG | 8590 fluorescence intensity (a.u.)
AGGATTGAATGAGTTTTCAGGGTACACAGGGAATTTACTCCGGAGTCACCTAGTGCAG | 5390 fluorescence intensity (a.u.)
ATATATTTTGAGATTGACGAAATCACAATAAACACCTCATCGGAGTCACCTAGTGCAG | 13900 fluorescence intensity (a.u.)
TTTGACTGCCGCTGACCTGTGGGCCCCACAACCACCCCATCGGAGTCACCTAGTGCAG | 19800 fluorescence intensity (a.u.)
ATCAATAATTAAATATACAAGTACCACTTAATGATCATGTCGGAGTCACCTAGTGCAG | 17700 fluorescence intensity (a.u.)
ACTTTTCAGTCACATCGTACTAATTTCAACCCAAATTTCTCGGAGTCACCTAGTGCAG | 4600 fluorescence intensity (a.u.)

Reference: paper PMC7819943, “Rice protein-binding microarrays: a tool to detect cis-acting elements near promoter regions in rice”
